# In PubChem BioAssay AID651820 (National Center for Advancing Translational Sciences (NCATS), 2012):
# “And” between values parts separate entries of the source, which are not always exact repeats. Equal values may be shown once. Among all 340,000 compounds or so, about 12,000 (3.5%) were called active. The inconclusive results got no clear call from the source; some entries with a clear call stand among them for comparison. The call rests on the fitted dose curve; in most records, active means well fitted inhibition curve with a large enough effect; inconclusive means small, poorly fitted or top-dose-only effect, or another doubt; inactive means no such curve, though single readings can be large or run the other way. Potencies beside an inconclusive call are fits to weak or partial responses and may not hold up.
# Assay: qHTS Assay for Inhibitors of Hepatitis C Virus (HCV)
# Details: Huh7.5.1 HCVcc-Cre (HCVcc is cell-culture hepatitis C virus) infection, luciferase reporter, 44 h; series mostly up to 41.8 µM
# Procedure, shortened: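 Whole-lifecycle infectious HCVcc-Cre system; cells 1,000/well, compound then virus (~0.5 moi) added 4 h after plating, 44 h culture. Luciferase read 15 sec following 15 min substrate incubation, room temp.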
# Potency means the concentration at half of the fitted maximal effect; tags describe the fitted curve by direction and shape.
row,SMILES,Potency
1,COc1ccc(CCNC(=O)CCNC(=O)N2CC(=O)Nc3ccccc32)cc1OC,"inconclusive: 3.55 µM [inhibitor, single point]"
2,COc1ccc(OC)c(CN2CCN(CCCc3ccccc3)C(CCO)C2)c1 (centres undefined),inactive
3,N=c1c2c(-c3ccccc3)c(-c3ccccc3)n(Cc3ccccc3)c2ncn1CCCn1ccnc1,active: 0.501 µM
4,CCOCCCNC(=O)c1cc2c(s1)-c1ccccc1SC2,inactive
5,Cc1ccc(NS(=O)(=O)c2ccc(Cl)c(NC(=S)NC(=O)C3CCCCC3)c2)cc1Cl,active: 11.2 µM
6,CCCN(Cc1nnc(-c2ccccc2Cl)o1)C(=O)COc1ccc(Cl)cc1,"inconclusive: 31.6 µM [inhibitor, single point]"
7,O=C(Cn1ccc(NC(=O)OCc2ccccc2)nc1=O)NCc1nc2ccccc2[nH]1,inactive
8,FC(F)Oc1ccc(NC(=S)N2CCc3ccccc32)cc1,"inconclusive: 31.6 µM [inhibitor, single point]"
9,O=C(Nc1cccnc1)c1ccc(Cl)c(S(=O)(=O)N2CCCC2)c1,"inconclusive: 22.4 µM [inhibitor, single point]"
10,COc1ccc(CCNC(=O)c2cn(C)c3ccc(S(=O)(=O)N4CCOCC4)cc3c2=O)cc1OC,inactive
11,Cc1nc2ccc(NC(=O)Cc3c(F)cccc3Cl)cc2s1,inactive
12,CC1(C)Cc2c(C#N)c(N3CCN(C(=O)c4ccccc4)CC3)nc(-c3ccco3)c2CS1,"inconclusive: 3.16 µM [inhibitor, single point]"
13,COC(=O)c1cc(C(=O)OC)n(Cc2ccc(Br)cc2)n1,inactive
14,Nc1ccc(C(=O)Nc2ccc(OC(F)(F)C(F)F)c(NC(=O)c3ccc(N)cc3)c2)cc1,active: 6.31 µM
15,CCOC(=O)C1=C(C)NC(=S)NC1c1ccc(-c2cccc(Cl)c2C)o1 (centres undefined),active: 6.31 µM
16,C=C(C)COc1ccc(-c2[nH]ncc2Oc2ccc(OC)cc2)c(O)c1,"inconclusive: 22.4 µM [inhibitor, single point]"
17,C=CCN(CC=C)C(=O)c1ccc2nc(Cc3ccc(OC)c(OC)c3)oc2c1,active: 11.2 µM
18,CCC(=O)NC(=S)Nc1cccc(NC(=O)c2ccc(Cl)cc2Cl)c1,"inconclusive: 31.6 µM [inhibitor, single point]"
19,COc1cc(OC)c(C(=O)Nc2ccc(C(=O)c3ccccc3)cc2)cc1OC,"inconclusive: 8.91 µM [inhibitor, partial curve]"
20,Cc1cccc(NC(=O)COC(=O)c2ccc([N+](=O)[O-])o2)c1C,inactive
21,O=C(Nc1cscc1S(=O)(=O)c1ccccc1)c1ccccc1Cl,inactive
22,Cc1ccc(-n2nc3c(=O)n(CC(=O)NCc4ccccc4)nc(C)c3c2C)cc1,"inconclusive: 2.82 µM [inhibitor, single point]"
23,CCNC(=O)N1CCCC(C(=O)c2ccc3cc(OC)ccc3c2)C1 (centres undefined),inactive
24,Cc1cccc(N2CCN(C(=O)CNC(=O)c3ccccc3)CC2)c1C,"inconclusive: 14.1 µM [inhibitor, single point]"
25,C[N+]1(C)CCC(=C2c3ccccc3CC(=O)c3sccc32)CC1,inactive

row,SMILES,Potency
1,COc1cccc(/C=N/NC(=O)c2ccc(-c3ccccc3)cc2)c1O,"inconclusive: 3.98 µM [inhibitor, full curve]"
2,C[C@H](NC(=O)c1nc[nH]c1C(=O)N1CCN(c2ccccc2)CC1)C(=O)OCc1ccccc1,"inconclusive: 6.31 µM [inhibitor, full curve, poor fit]"
3,CC1=CC(C)(C)[N+](C)=CN1c1ccccc1,inactive
4,CCOC(=O)/C(=N\Nc1ccc(C(C)=O)cc1)c1csc(Nc2ccccc2)n1,"inconclusive: 11.2 µM [inhibitor, single point]"
5,COc1ccc(-c2c(-c3ccc(OCC(=O)NN)cc3O)n[nH]c2C(F)(F)F)cc1,inactive
6,Cc1ccc(-n2nnnc2SCC(=O)N2c3ccccc3NC(=O)C2(C)C)cc1,"inconclusive: 3.55 µM [inhibitor, partial curve]"
7,Cc1n[nH]c(C)c1N=Nc1ccc(Br)cc1,"inconclusive: 22.4 µM [inhibitor, single point]"
8,CC(C)Oc1ccc(/C=N/NC(=O)C2CCCN2S(=O)(=O)c2ccc(Cl)cc2)cc1 (centres undefined),"inconclusive: 31.6 µM [inhibitor, single point]"
9,O=C(NN1C(=O)/C(=C/c2ccc(O)c(O)c2)SC1=S)c1ccccc1,inactive
10,O=C(NCCOC(=O)c1ccc(S(=O)(=O)N2CCOCC2)cc1)c1cccnc1,inactive
11,CC(=O)c1cccc(NS(=O)(=O)c2ccc(-c3cnc(C4CC4)o3)cc2)c1,"inconclusive: 5.62 µM [inhibitor, single point]"
12,O=C(CCN1CCCCO1)N1CCCC(N2CCN(c3ccc(F)cc3)CC2)C1 (centres undefined),inactive
13,O=C(Nc1ccc(F)cc1)c1cnc(-c2ccccc2)nc1-c1ccccc1,"inconclusive: 12.6 µM [inhibitor, partial curve]"
14,O=[N+]([O-])c1cc(S(=O)(=O)c2ccc(N3CCCCC3)c([N+](=O)[O-])c2)ccc1N1CCCCC1,"inconclusive: 2.82 µM [inhibitor, full curve]"
15,CN(Cc1ccccc1)C(=O)c1cccc(NC(=O)Cc2cccc([N+](=O)[O-])c2)c1,active: 2.82 µM
16,COc1ccc(N2C(=O)C(CN3CCN(C)CC3)C2c2ccccc2)cc1 (centres undefined),active: 35.5 µM
17,CN(C)S(=O)(=O)c1cccc(NC(=O)CCCC2CCCCC2)c1,"inconclusive: 31.6 µM [inhibitor, single point]"
18,COc1cccc(NC(=O)CN(C)C(=O)COc2cc(C)ccc2Cl)c1,"inconclusive: 31.6 µM [inhibitor, single point]"
19,CN(c1ccc(C(=O)Nc2ccccc2Sc2ccccc2)cc1)S(C)(=O)=O,"inconclusive: 14.1 µM [inhibitor, single point]"
20,C=C(C)CSc1nnc(-c2ccc(OC)cc2)n1N,inactive
21,O=[N+]([O-])c1ccc(Nc2cccc3c2[nH]c2c(-c4ccccc4)nccc23)c([N+](=O)[O-])c1,"inconclusive: 3.55 µM [inhibitor, partial curve]"
22,CC(=O)Nc1ccc(Cl)c(-c2nc3ncccc3o2)c1,inactive
23,Cc1cccc(S(=O)(=O)N(CC(=O)Nc2ccccc2C)Cc2ccco2)c1,inactive
24,C=CCNc1oc(-c2ccc(OCC)cc2)nc1C#N,"inconclusive: 1 µM [inhibitor, full curve, poor fit]"
25,CCCN1CCc2c(sc3nc(SC)n(-c4ccccc4)c(=O)c23)C1,"inconclusive: 12.6 µM [inhibitor, partial curve]"

row,SMILES,Potency
1,O=C(NCCO)C(=O)Nc1cc2c3c(c1)CC(=O)N3CCC2,inactive
2,OC1(C#Cc2c(-c3ccsc3)oc3ccc(N4CCOCC4)cc23)CCCCC1,active: 5.62 µM
3,O=C(COC(=O)Cc1ccccc1)NC12CC3CC(CC(C3)C1)C2,inactive
4,O=C(CCl)N1CCN(S(=O)(=O)c2ccc3c(c2)CCC3)CC1,active: 14.1 µM
5,CC(C)(C)c1ccc(C(=O)Nc2cccc3c(=O)[nH][nH]c(=O)c23)cc1,"inconclusive: 14.1 µM [inhibitor, single point]"
6,CC1(C)Cc2nc(N3CCCC3)c(C#N)cc2CO1,inactive
7,COC(=O)c1ccc(N2CCCCC2)c(NC(=O)c2ccco2)c1,active: 1.41 µM
8,CN(CC(=O)Nc1ccc(Cl)c(Cl)c1)C1CCCCC1,inactive
9,CCOC(=O)c1ccc(NC(=O)Nc2ccc(OC)c(OC)c2)cc1,active: 25.1 µM
10,COC(=O)c1cn(CC(=O)NC2CCCCCC2)c2ccccc12,inactive
11,O=C(NC1CCCCC1)c1ccc(CS(=O)Cc2ccc(Cl)cc2)o1 (centres undefined),inactive
12,CN1CCN(c2ccc(CNS(=O)(=O)Cc3cccc(C(F)(F)F)c3)cc2)CC1,active: 5.62 µM
13,CCOC(=O)N1CCC(NC(=O)C2CCC(Cn3c(=O)[nH]c4ccccc4c3=O)CC2)CC1 (centres undefined),"inconclusive: 11.2 µM [inhibitor, partial curve]"
14,CC(C)OC(=O)CC(=O)CSc1nc(-c2ccc(F)cc2)cc(-c2ccccc2)c1C#N,"inconclusive: 2.82 µM [inhibitor, full curve]"
15,Cc1cc(NC(=O)c2cc3n(n2)C(C(F)(F)F)CC(c2ccco2)N3)n(-c2ccccc2)n1 (centres undefined),"inconclusive: 11.2 µM [inhibitor, partial curve] and inconclusive: 31.6 µM [inhibitor, partial curve]"
16,COc1ccc(-c2nn(-c3ccccc3)cc2C(=O)NC(=S)N2CCOCC2)cc1OC,inactive
17,O=C(c1cc2c(s1)CCCCC2)N1CCN(c2ncccn2)CC1,"inconclusive: 2 µM [inhibitor, partial curve]"
18,Cc1ccc(-c2nnn(CC(=O)Nc3cccc4c3CCCC4)n2)o1,"inconclusive: 31.6 µM [inhibitor, single point]"
19,O=c1oc(-c2ccccc2[N+](=O)[O-])nc2ccccc12,inactive
20,CC1CCCCN1S(=O)(=O)c1ccc(C(=O)Nc2nnc(-c3ccccc3Cl)o2)cc1 (centres undefined),"inconclusive: 3.55 µM [inhibitor, full curve]"
21,Cc1cc(OCC(=O)N(C)c2ccccc2)cc2c1C(=O)CC(C)(C)O2,"inconclusive: 15.8 µM [inhibitor, partial curve]"
22,Cn1c(=O)c([N+](=O)[O-])c(NCCCn2ccnc2)c2ccccc21,inactive
23,COCc1c(C(=O)N2CCN(CCOc3ccccc3)CC2)oc2ccccc12,"inconclusive: 31.6 µM [inhibitor, single point]"
24,S=C(Nc1cccnc1)N1CCN(c2ccccc2Cl)CC1,inactive
